The values that follow come from PMC12136788.

Some of the results follow.

The labels stand for the following.
T1: UNK ZnF1-3 (human, UniProt Q9C0B0 31-174)
T1 sequence: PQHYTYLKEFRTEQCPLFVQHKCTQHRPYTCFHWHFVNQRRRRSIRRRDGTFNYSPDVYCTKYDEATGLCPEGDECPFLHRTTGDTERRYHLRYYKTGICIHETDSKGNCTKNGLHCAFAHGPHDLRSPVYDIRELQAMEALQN

B1: chr4:76691598:76691599:+_ENSG00000138768_ENST00000264904|hu_hu|FALSE|FALSE (ssRNA)
RNA: GGGAGUUCUACAGUCCGACGAUCUGCUUAAUGAAAAUUUCUGUAAAUUGGCUUCCCAAAUCUUCACUCUGUCUUGUGGAAUUUUCUUCUACUUCUUCUUCUUCUUCAUUAGAUAUUAUAUUAUAUAGUGUGUCCAAAGCAUAACAACAGAGGAUUGAGCAUCA
B2: chr18:59899606:59899607:+_ENSG00000134444_ENST00000256858|hu_hu|motif|central (ssRNA)
RNA: GGGAGUUCUACAGUCCGACGAUCUCCCAGCAUUAACAUAACGCUUUUUUCACUGUCUGCAAUACGAGACACCUCGUAUCCGGAACGACUAUCUGCUGACAUUCGACAAAAAGAGAGUAGUGCUUGAUGGAAUGCAGGAGACAACAACAGAGGAUUGAGCAUCA
B3: chr9:100389865:100389866:-_ENSG00000136925_ENST00000341170|hu_mus|FALSE|FALSE (ssRNA)
RNA: GGGAGUUCUACAGUCCGACGAUCUAUCAGUGGGACAGGUUCCUUGCAGACAAGUAUCUUCCGCAAACCCUAGGCCUUUCCUGGGUCUCCCUUCACCAACUUGGCGCUGCUCCCCGCCCUCGAGCCCACGCCCCCCGGCGCGCGCAACAGAGGAUUGAGCAUCA
B4: 51412488_51412608_1970_3pUTR_ENSMUSG00000004980_ENSMUST00000114459|mouse|control|control (ssRNA)
RNA: GGGAGUUCUACAGUCCGACGAUCAGACCUGUGUCCCUGAAGAGUACCUCGCUGGGGUUAUUUCCUUUCCUUGCAUUGAAGAAGCAGCAUCUAAAAGAUCUAAAAAGGUGUUUCUCUUUGCAGAGAUAUCCCUUAAGUUAACUACAACAGAGGAUUGAGCAUCA
B5: chr16:94690093:94690094:+_ENSMUSG00000040785_ENSMUST00000117648|mus_hu|mus_mus_mus_hu_True|78_78 (ssRNA)
RNA: GGGAGUUCUACAGUCCGACGAUCGGGCUGGGAUGACGGACACACAGCCUCGAUUCCGGUAAAAAAAAGUCUUAGUCGAUACUAAUUAAAAAGUGUUAAUGAUUUUUGAAAAUCAGAUUACAUCUAUAAAAGAUGAAAAGCAAACAACAGAGGAUUGAGCAUCA
B6: chrX:20248510:20248511:+_ENSMUSG00000001924_ENSMUST00000001989|perfect_dup|motif|central (ssRNA)
RNA: GGGAGUUCUACAGUCCGACGAUCGACCUGACUGACGAUGCCUCCACGGAUGUAGUCGGAGAAGUUGGAGGUGUCACAGAUGCGGAAGGUAUAAGGACCCAGGACUUUGAUCUCCAUGGGCUGAUUUCCGUUGAGUUCAACCAUCAACAGAGGAUUGAGCAUCA
B7: 75176787_75176907_119_3pUTR_ENSMUSG00000026198_ENSMUST00000027396|mouse|control|control (ssRNA)
RNA: GGGAGUUCUACAGUCCGACGAUCAUGGAGCUACGCCGCUUGGGUCGCGGGAAGGGACGCACGUGGACCUGCUACACUGCCCACUCUCUUCACGCACGCGCCGCUACCACGCAUACUCACGCAAGCCACGUACGCCGUGCUUGCCAACAGAGGAUUGAGCAUCA
B8: chr11:87794696:87794697:-_ENSMUSG00000020483_ENSMUST00000020775|mus_mus|motif|central (ssRNA)
RNA: GGGAGUUCUACAGUCCGACGAUCGGCCUUUUAUUUUUAUCUAGGGAGAGAAGAGAAAAGGAGGGGUAGGAGAGAUUUCCGGGUGCAGUACAACCAAAAAAAUAAUGUUAACGUCUUAAAAACAAACGCAAAGCAGCCUUCUUCCAACAGAGGAUUGAGCAUCA
B9: chr13:59231463:59231464:+_ENSMUSG00000055254_ENSMUST00000079828|mus_mus|FALSE|FALSE (ssRNA)
RNA: GGGAGUUCUACAGUCCGACGAUCAAAUGGAAACACUGGUCUCCCUCGGUCUAAAUGACUACCCAAAUACCUGUAAAUUUCUAUAUAAAUUUACCCUCUCUUUUCGGAAAACCAAUGACCAUGUGCGGGCGCAAAUCUCCAGGCCAACAGAGGAUUGAGCAUCA
B10: chr8:108204030:108204031:+_ENSMUSG00000005698_ENSMUST00000005841|mus_mus|FALSE|FALSE (ssRNA)
RNA: GGGAGUUCUACAGUCCGACGAUCGGCCACAGGCUGAGGUGGAGGCGGAGGCUGGGGCUGAGGCUCUGGCUCAGGUUCAAUUUCUACAGCAGGCUCCUCCUCCUCCUCAUUGUCAUCGAGAUCCGGCUCAGCAUUUUCUUCACUCAACAGAGGAUUGAGCAUCA
B11: chr8:104447970:104447971:+_ENSG00000164934_ENST00000297579|hu_hu|hu_hu_hu_mus_False|88_88 (ssRNA)
RNA: GGGAGUUCUACAGUCCGACGAUCAUACACUUCCCUGCUUCGGCUCUUGUCUACAGGAAAGAUUCUAAUAGACUUAUCAAAGCUGGCAGACACAAAUUCCUUCCCAGUGGGAGAGUAGUCCACAUCAAGUACUGCAGACACGUGCAACAGAGGAUUGAGCAUCA
B12: 32429686_32431999_570_CDS_ENSG00000152683_ENST00000406369|human|control|control (ssRNA)
RNA: GGGAGUUCUACAGUCCGACGAUCUCUGAUGAGUUUGUCCAACUGACCAAUAACAUGGGGUGGUGUUGUCUGGAGUAAGACUUUCCCACUGUACACACUCAUGGGAUACAUAGUGCCAAAUGUCAUCAAGGCAAUAGCUAUAGCCAACAGAGGAUUGAGCAUCA
B13: chr1:163112212:163112213:-_ENSG00000143248_ENST00000313961|hu_hu|hu_hu_hu_mus_False|18_88 (ssRNA)
RNA: GGGAGUUCUACAGUCCGACGAUCUUUUAUUAUCAGUAAGAGUGAGUCACAUAGUACGCAAAGUAUUGGAUACAAUAAUCAGGAAACAAACACUAUUGGUCCAGAAUUUAAAACUUUUGGGAUAAAUUGCUGGCACAGGACUUACAACAGAGGAUUGAGCAUCA
B14: chr1:150203005:150203006:-_ENSG00000143401_ENST00000314136|hu_hu|motif|central (ssRNA)
RNA: GGGAGUUCUACAGUCCGACGAUCAAGAUUUGGACAUUUCUCUGCCAGGACUUCCAAGCCUCCAGAAAUUAUAUUAUCACGGAGCUCCAAUUUUCGAAGUUUAUUUAAGCUGGGAAGCCGGGCCAGCGAACUUAGUUCCACAUUCAACAGAGGAUUGAGCAUCA
B15: chr7:151048522:151048523:+_ENSG00000013374_ENST00000566856|hu_mus|hu_hu_hu_mus_True|18_48 (ssRNA)
RNA: GGGAGUUCUACAGUCCGACGAUCCUGUUUCUUAUUUAUUACGAUCUUGAUGUAAUUUUCUUGAAAUCCGAAAGUUUCAGCUAUUUGGGACCUCAGUUCUCUACCAGUGACAUGCAAUCGGGUCUCCAACAAGCUUUUCUUAUCCAACAGAGGAUUGAGCAUCA
B16: chr4:83978449:83978450:+_ENSG00000138663_ENST00000264389|hu_hu|FALSE|FALSE (ssRNA)
RNA: GGGAGUUCUACAGUCCGACGAUCUAUUGUCUUGUAAGAGAGCUCAUUGUACCUUUGUGCAGCUUCAAUGAAUUUUCUUCUAUAAUCAAGAACACGUGCAUAGCAUACCUUAUAAUGUAUCUGUAAUUGUUCAUUGGUUGAUUCCAACAGAGGAUUGAGCAUCA
B17: chr6:135286264:135286265:-_ENSG00000112339_ENST00000367826|hu_mus|motif|central (ssRNA)
RNA: GGGAGUUCUACAGUCCGACGAUCCUCUGGCAGCUGGCAACUGGGAAGUUUUGCAGAGUAAUCCUUAAUACUUGUUGGCAGCGGACUGUACUUUAGUGUCUCUCAUCUAACAAUCAUGACUGCAUGCUGUUUCCUUAGCUGCACCAACAGAGGAUUGAGCAUCA
B18: chr2:179515052:179515053:+_ENSMUSG00000000305_ENSMUST00000000314|mus_hu|mus_mus_mus_hu_False|1_38 (ssRNA)
RNA: GGGAGUUCUACAGUCCGACGAUCGCUGUCCCAUGCAGUCACCGUGAACGCCACCUGCUCGGAGGGGACCUGCAGCUCCCGGGUGGCGAAGACUGUCCCAUCCGCCCCAACUUUGAAGUCCAUGCUGUUGGUCUCAUACUGCAUCAACAGAGGAUUGAGCAUCA
B19: chr2:148695906:148695907:-_ENSG00000115947_ENST00000542387|hu_hu|motif|central (ssRNA)
RNA: GGGAGUUCUACAGUCCGACGAUCGACCAUUUGAAAAUUAAAUGGCUCUUCCUCAUAGAUGUCAUUUAAAUGUUUCAUUGCGGUUAUAAGACAGAUUUCCAAGACUGAUAGACCAUGUACAAUAUUUGCUUUCGAGUCCAUGCUCAACAGAGGAUUGAGCAUCA
B20: chr12:57064132:57064133:-_ENSG00000110958_ENST00000262033|hu_hu|motif|central (ssRNA)
RNA: GGGAGUUCUACAGUCCGACGAUCAGACAUGUCUUCAUCUGAAUCAUCUUCCCAGUCUUUCCAAUUAUUGAAGUCGACACGGAGCCAAUUAAGCUUUGCCCUUUCUUUUGUUAACCUUGGCCAUGACUGGCCAGAUUCUCCUUUCAACAGAGGAUUGAGCAUCA
B21: chr16:17043922:17043923:+_ENSMUSG00000063358_ENSMUST00000069107|mus_hu|FALSE|FALSE (ssRNA)
RNA: GGGAGUUCUACAGUCCGACGAUCAGGGCUGCCAGGAGGAAUUCUCUGGACUGAAGAAAUUCUUUGAAAGCAUAAAAGCCACAACUACCAGAAACCGCCCCUCCAAACGGCUCAAAGGAGUCAAAGUGGAUAAGCCAAGACGGGCAACAGAGGAUUGAGCAUCA
B22: chr14:102349618:102349619:+_ENSG00000078304_ENST00000445439|hu_mus|FALSE|FALSE (ssRNA)
RNA: GGGAGUUCUACAGUCCGACGAUCUACAAACUUCUGAUCAAUAUAUUUCUUUGCUAUAUUGGGUUGGAAAUCUGGAGACUCUAAAAAUCUUAAGAAAAAUUCAUAAACAAGCUGCAGAUGAGGCCAGGCUGCUUCUAACGUUGGCAACAGAGGAUUGAGCAUCA

The target of the experiment is T1, UNK ZnF1-3. Kind of experiment: nsRBNS (natural sequence RNA bind-n-seq); RBNS binding buffer (assumed for nsRBNS): 25 mM Tris pH 7.5, 150 mM KCl, 3 mM MgCl2, 0.01% Triton X-100, 500 ug/ml BSA, 20 U/ml SUPERase-In, 4 C; UNK is unkempt and MSI1 is Musashi-1; names of the RNAs are library labels; protein concentration not given here; high values mean tight binding.
Molecule B1 showed a binding signal of 0.655 enrichment R.

B2 returned a binding signal of 0.699 enrichment R.

In the case of B3, the binding signal amounted to 1.19 enrichment R.

Molecule B4 showed a binding signal of 0.869 enrichment R.

As to B5, the binding signal was found to be 1.54 enrichment R.

Consider B6, for which the binding signal is 0.457 enrichment R.

For B7, the binding signal is 0.499 enrichment R.

Take B8: the binding signal was 1.99 enrichment R.

For the molecule B9, the binding signal stood at 0.967 enrichment R.

The molecule B10 gave a binding signal of 0.507 enrichment R.

In turn, B11 had a binding signal of 1.01 enrichment R.

In turn, B12 came in with a binding signal of 0.963 enrichment R.

B13: the binding signal is 1.51 enrichment R.

Molecule B14 yielded a binding signal of 1.07 enrichment R.

Consider B15, for which the binding signal turned out to be 0.654 enrichment R.

Turning to B16, the binding signal was 0.625 enrichment R.

B17 registered a binding signal of 0.897 enrichment R.

Molecule B18 showed a binding signal of 0.785 enrichment R.

For the molecule B19, the binding signal turned out to be 0.775 enrichment R.

Molecule B20 came in with a binding signal of 0.574 enrichment R.

For the molecule B21, the binding signal worked out at 1.6 enrichment R.

In turn, B22 gave a binding signal of 1.76 enrichment R.
